Assay results reported in paper PMC4336329 (PLoS ONE, 2015).
Hit rate of the full screen: of about 310,000 compounds, about 2,200 (0.71%) showed an effect of 50% or more. The effect is printed as a negative number. The list shows a part of the results.

Target: human ether-à-go-go-related gene (hERG) potassium channel (human, UniProt Q12809)
Assay: primary screen, population patch clamp on CHO cells stably expressing hERG

Sequence of human ether-à-go-go-related gene (hERG) potassium channel (Q12809 whole entry, looked up): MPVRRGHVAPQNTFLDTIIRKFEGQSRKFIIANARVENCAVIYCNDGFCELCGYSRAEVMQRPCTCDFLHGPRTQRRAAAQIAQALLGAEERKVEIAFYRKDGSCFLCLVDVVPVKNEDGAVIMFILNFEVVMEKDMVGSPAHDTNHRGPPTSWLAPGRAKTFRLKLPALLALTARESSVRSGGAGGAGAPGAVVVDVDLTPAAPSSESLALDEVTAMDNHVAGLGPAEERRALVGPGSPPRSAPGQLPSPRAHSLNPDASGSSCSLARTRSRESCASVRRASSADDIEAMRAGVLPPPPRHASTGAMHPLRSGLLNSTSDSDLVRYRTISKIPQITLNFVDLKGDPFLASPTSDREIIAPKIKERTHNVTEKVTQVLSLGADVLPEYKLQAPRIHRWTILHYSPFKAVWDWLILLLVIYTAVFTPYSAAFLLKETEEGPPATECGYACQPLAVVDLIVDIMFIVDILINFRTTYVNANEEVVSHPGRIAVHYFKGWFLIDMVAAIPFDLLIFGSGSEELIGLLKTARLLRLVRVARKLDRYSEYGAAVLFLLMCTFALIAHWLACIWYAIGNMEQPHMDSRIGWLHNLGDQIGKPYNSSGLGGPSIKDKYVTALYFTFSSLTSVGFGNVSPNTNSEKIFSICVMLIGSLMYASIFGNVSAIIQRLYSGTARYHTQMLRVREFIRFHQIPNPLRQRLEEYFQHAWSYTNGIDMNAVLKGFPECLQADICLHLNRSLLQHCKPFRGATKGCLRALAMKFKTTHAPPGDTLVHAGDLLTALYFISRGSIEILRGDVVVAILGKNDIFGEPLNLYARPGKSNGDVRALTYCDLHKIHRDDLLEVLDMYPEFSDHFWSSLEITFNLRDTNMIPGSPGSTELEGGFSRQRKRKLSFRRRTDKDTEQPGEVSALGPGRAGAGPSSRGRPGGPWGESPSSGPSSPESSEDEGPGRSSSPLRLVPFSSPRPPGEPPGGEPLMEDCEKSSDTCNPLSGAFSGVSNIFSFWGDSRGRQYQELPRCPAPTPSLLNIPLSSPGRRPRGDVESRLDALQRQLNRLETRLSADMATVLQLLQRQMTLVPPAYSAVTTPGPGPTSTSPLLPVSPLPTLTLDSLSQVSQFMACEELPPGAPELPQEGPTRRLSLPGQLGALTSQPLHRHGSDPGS

SMILES | hERG current change (%, negative = inhibition) at 1uM [%]
Cc1ccc(C)c(N2CCN(CC(=O)Nc3ccc4[nH]c(=O)[nH]c4c3)CC2)c1 | 2.63
COC(=O)c1cn(CCOc2ccccc2)c2ccccc12 | 7.42
CCSc1nc2c([nH]c3ccccc32)c(=O)n1C | 4.49
Cc1ccccc1CNC(=O)COc1ccccc1 | 12.3
CCc1ccc(Nc2ncc3c(n2)CC(c2ccc(OC)cc2)CC3=O)cc1 (centres unmarked) | 14.4
C#CCOCCOCCOCCNc1nc(N2CCN(C(=O)[C@H]([C@@H](C)CC)n3cc([C@@H](N)CC(C)C)nn3)CC2)nc(N2CCN(C(=O)[C@H](CCCCN)n3cc([C@@H](N)C(C)CC)nn3)CC2)n1.Cl (some centres unmarked) | 14.4
COCCn1c(C)cc(C(=O)CSc2nc3ccccc3c(=O)n2Cc2ccco2)c1C | 2.93
O=C1/C(=C/c2cccc(F)c2)Oc2cc(O)ccc21 | 13.2
CC(=O)N(C1=NCCCS1)c1ccccc1Cl | 11.5
Cc1cc(C)nc(NC2=NCC(=O)N2c2ccc(F)c(Cl)c2)n1 | 5.25
Cc1noc(C)c1COc1ccccc1C(=O)NNC(=O)c1ccc(F)cc1 | 13.9
CC(C)OCCCn1c(SCC(=O)N2CCCC2=O)nc2ccccc2c1=O | 7.56
CCS(=O)(=O)CCSc1nc(C)cc(C)c1C#N | 9.97
CCCCCCOc1ccc(/C=N/NC(=O)C2CC2)cc1 | 12.4
COc1cc(NC(=O)COC(=O)/C=C/c2ccc(OC)c(OC)c2)cc(OC)c1 | 2.06
COCCn1c(-c2ccc(OC(F)(F)C(F)C(F)(F)F)cc2)nc2c1c(=O)[nH]c(=O)n2CC(C)C (centres unmarked) | 0.184
CN(Cc1ccccc1F)C(=O)CN1CCN(S(=O)(=O)c2ccc3c(c2)OCCCO3)CC1 | 0.175
CCCCC(Sc1nc(N)c(NC(=O)c2ccco2)c(=O)[nH]1)C(=O)O (centres unmarked) | 10.8
Cc1nn(Cc2ccc(Cl)c(Cl)c2)c(C)c1NC(=O)c1cc(-c2ccc3c(c2)OCO3)on1 | 12.1
C=CCN(CC=C)S(=O)(=O)c1ccc(NC(=S)NC(=O)c2ccco2)cc1 | 10.3
COc1ccccc1CNC(=O)CN(C)S(=O)(=O)c1ccc(F)cc1 | 12.6
CCCCNC(=O)C(=O)N/N=C/c1ccc(OCc2ccccc2)cc1 | 7.28
O=C(NC1(C(F)(F)F)C(=O)Nc2c1c(=O)[nH]c(=O)n2Cc1ccco1)C1CC1 (centres unmarked) | 0.186

SMILES | hERG current change (%, negative = inhibition) at 1uM [%]
N#Cc1ccc(OCC(=O)NCC2(N3CCCCC3)CCCCC2)cc1 | -34.6
COc1ccc(C(=O)Cc2cc3cccc(OC)c3oc2=O)cc1 | 14.6
O=C(N/N=C/c1c(Cl)cccc1Cl)c1n[nH]c2c1CCCC2 | 4.97
COc1ccccc1OCCCN1C(=O)C(=O)c2cccc(C)c21 | 8.36
COc1ccccc1CNC(=O)COC(=O)c1ccccc1SCC(=O)N1CCCC1 | 1.19
O=C(Nc1ccccc1)NC1CCCCNC1=O (centres unmarked) | 10.8
COc1ccc(S(=O)(=O)N2CCC(C(=O)Nc3nnc(C)s3)CC2)cc1OC | 20.4
Cc1cccc(NC(=O)Cn2c(=O)oc3ccccc32)c1 | 12.1
Brc1ccc(-c2nc3ncccn3c2NC2CCCCC2)o1 | 1.03
COCCN1C2=C(C(=O)CC(C)(C)C2)C(c2ccc(OC)c(OC)c2)C2=C1CC(C)(C)CC2=O | 8.61
CCCC(=NCC(=O)O)C1=C(O)C(C(=O)OC)C(C)(C)CC1=O (centres unmarked) | 3.3
O=C1NC(=S)N/C1=C/c1ccc2c(c1)OCO2 | 9.68
COc1ccc(S(=O)(=O)N2CCCCCC2)cc1C(=O)Nc1cc(C)ccn1 | -12.7
COc1cccc(N(CC(=O)Nc2cccc(N(C)S(C)(=O)=O)c2)S(C)(=O)=O)c1 | 16
COc1ccc(/C=N/Nc2nc(N3CCCC3)nc(N3CCCC3)n2)cc1 | 14.3
CCOC(=O)C1(Cc2cccc(F)c2)CCN(Cc2cnc(C)s2)CC1 | 7.22
CNc1snc(C)c1C(=O)OC(C)C(=O)Nc1ccccc1 (centres unmarked) | 6.39
CNC(=O)c1sc(SC)cc1-c1ccc(Cl)cc1 | 8.73
CCN(C(=O)c1c(-c2ccccc2Cl)noc1C)C1CCCCC1 | 11.4
O=[N+]([O-])c1cc(Cl)ccc1-c1nc(-c2ccncc2)no1 | -0.683
N#CCCN(Cc1cccnc1)C(=S)NC1CC2C=CC1C2 (centres unmarked) | 8.45
COC(=O)C1=C(C)OC(N)=C(C#N)C12C(=O)Nc1ccccc12 (centres unmarked) | 1.84
COc1cc(NC(=O)CSc2nncn2C)cc(OC)c1OC | 6.96

SMILES | hERG current change (%, negative = inhibition) at 1uM [%]
CCCCCCCCCC(=O)Nn1cnc2ccccc2c1=O | 6.75
CCOC(=O)CCC(=O)Nc1ccc(S(=O)(=O)N2CCc3ccccc32)cc1 | 14.4
CC(=N\O)/C(CN(C)C)=N/O | 6.42
O=C(Nc1ccc(-c2ccccc2)cc1)c1ccccc1 | 8.19
Cc1ccccc1OCC(=O)N1CCCCCCC1 | 23.5
COc1cc(OC)cc(C(=O)Nc2nc(CC(=O)NCc3ccc(F)cc3)cs2)c1 | 8.38
Cc1ccc(OCCNC(=O)C2CCCCC2)cc1 | 0.357
CSc1ccccc1NC(=O)CN(Cc1ccc(Cl)cc1)S(C)(=O)=O | 5.03
O=C(COC(=O)c1cccc(S(=O)(=O)N2CCCCC2)c1)NC1CCCc2ccccc21 (centres unmarked) | 8.18
CO/N=C/c1ccc(Oc2ccc(C)cc2)c([N+](=O)[O-])c1 | 7.97
O=C(Nc1nnc(-c2ccccc2SCc2ccccc2)s1)Nc1ccccc1F | 18
COc1cc(/C(C)=N/NC(=O)CSc2nc3ccccc3[nH]2)ccc1O | 6.41
COC(=O)COc1cccc2c(=O)n(CC(=O)N3CCC(C)CC3)ccc12 | 7.87
CC(=O)Nc1ccc(Nc2nc(C)c([N+](=O)[O-])c(N(C)c3ccccc3)n2)cc1 | 8.02
CN(Cc1cn(C)nc1-c1cccc(Cl)c1)C1CCOCC1 | 15.5
COc1cccc(NC(=O)CN(C)C(=O)c2cc3ccccc3cc2OC)c1 | -0.965
CCOC(=O)c1ccccc1NC(=O)c1ccc2nc[nH]c2c1 | 14.5
COc1ccc(CC(=O)NNc2ncnc3c2cnn3C)cc1 | 8
CC(NC(=O)c1ccc2c(c1)OCO2)C1CCCO1 (centres unmarked) | -0.0414
CCOc1ccc(C(c2nnnn2Cc2ccccc2)N2CCN(C(=O)c3ccco3)CC2)cc1.Cl (centres unmarked) | -7.21
CCOc1ccc(NC(=O)CN(C)C(=O)CC2OC(=O)c3ccccc32)cc1OCC (centres unmarked) | 13.7
COc1cccc(NC(=O)CN(C)CC(=O)Nc2ccc(Br)cc2)c1 | 7.26
COc1cc(CNCCc2ccccc2)ccc1OCc1ccc(Cl)nc1.Cl | -0.117

SMILES | hERG current change (%, negative = inhibition) at 1uM [%]
N#Cc1cc(C(=O)c2cc(F)ccc2O)cn(Cc2ccccc2)c1=O | 17.3
CC(C)Cn1c(N)c(C(=O)COC(=O)/C=C/c2cccs2)c(=O)n(C)c1=O | 2.04
Cc1cc(C=O)c(C)n1-c1ccc(Oc2ccc([N+](=O)[O-])cn2)cc1 | 1.07
CCOc1ccc(-c2nnc(Nc3ccc(OC)c(C(=O)N4CCCCC4)c3)c3ccccc23)cc1 | 4.28
COC(=O)/C=C1/SC(=Nc2ccc(Cl)c(Cl)c2)NC1=O | 7.18
CN1CCc2c(sc(NC(=O)C3CCN(S(=O)(=O)c4cccs4)CC3)c2C(N)=O)C1.Cl | -4.56
Cc1ccc(C(=O)N/C(=C\c2ccco2)C(=O)N2CCOCC2)cc1C | 6.26
CN(C)S(=O)(=O)c1cccc(-c2csc(=Nc3ccccc3)n2CCCN2CCOCC2)c1 | 4.28
CCOC(=O)C1=C(N)OC2=C(C(=O)CCC2)C1c1cccs1 (centres unmarked) | 9.74
O=C(CN(C(=O)CNS(=O)(=O)c1ccc(F)cc1)C1CCCC1)NCc1ccco1 | 1.79
Cc1cc(OCCCCN2C(=O)NC(C)(C)C2=O)ccc1[N+](=O)[O-] | 10.1
CCCC(=O)Nc1nnc(Cc2ccccc2)s1 | 7.14
Cn1c2ccc(Br)cc2c2nnc(SCC(=O)O)nc21 | 11.3
CCCCC(C(=O)O)C(C)CC(=O)NNC(=O)c1ccco1 (centres unmarked) | 11
CCNC(=S)NNC(=O)c1ccc(=O)n(Cc2ccccc2)c1 | 14.4
C=CCNC(=S)NC(=O)c1csc([N+](=O)[O-])c1 | 13
CCn1c(=O)cc(SCC(=O)Nc2cccc(SC)c2)c2ccccc21 | 9.99
C/C(=N\NC(=O)Cc1ccccc1Cl)c1cccnc1 | 6.89
Cc1cc(OCC(=O)N2CCc3ccccc3C2)c(C)cc1Br | 18.2
CC(=O)NCC(=O)N1CCCC(C(=O)c2ccc(-c3ccccc3)c(F)c2)C1 (centres unmarked) | 3.87
